Results taken from PubChem BioAssay AID624418 (National Center for Advancing Translational Sciences (NCATS), 2012).
Screen size: about 410,000 compounds; about 530 (0.13%) were called active. Inconclusive results, whose numbers are uncertain, are shown with a selection of clear calls. The call rests on the fitted dose curve; in most records, active means well fitted inhibition curve with a large enough effect; inconclusive means small, poorly fitted or top-dose-only effect, or another doubt; inactive means no such curve, though single readings can be large or run the other way. Potencies beside an inconclusive call are fits to weak or partial responses and may not hold up.

Assay: qHTS of GLP-1 Receptor Inverse Agonists: Cytotox Screen
Conditions: HEK293 cAMP-luciferase reporter cells, luminescence, 24 h; series mostly up to 38.3 µM
In short: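 Compound-treated cells are incubated 24 hr at 37 deg C under 5% CO2 after a 12 hour attachment period, then luciferase detection reagent is added and luminescence is measured following 12 min at room temperature; lowered signal indicates toxicity.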
Potency means the concentration at half of the fitted maximal effect.

| Structure (SMILES) | Potency |
| --- | --- |
| CC(NCCCOc1cccc2ccccc12)c1ccccc1 (stereo unspecified) | inconclusive: 12.6 µM [inhibitor, single point] |
| S=C(N/N=C1\CCc2ccccc21)NC1CCCCC1 | inconclusive: 2.24 µM [inhibitor, full curve, poor fit] |
| CC(=O)c1ccc(-c2ccc(C(=O)N(C)Cc3nc4ccccc4c(=O)[nH]3)o2)cc1 | inactive |
| CC(=O)N1CCN(S(=O)(=O)c2cccc(C(=O)OCc3cccc(F)c3)c2)CC1 | inconclusive: 10 µM [inhibitor, partial curve, poor fit] |
| Cc1ccc2nc(N(CCCN(C)C)C(=O)CCc3ccccc3)sc2c1 | inconclusive: 22.4 µM [inhibitor, single point] |
| CN(C(=O)CSc1nc2ccc(NC(=O)COc3ccccc3Cl)cc2s1)c1ccccc1 | inactive |
| COc1ccc(N2CCN(S(=O)(=O)CCNC(=O)c3ccc(OC(C)C)cc3)CC2)cc1 | inactive |
| CCNc1nc(ON=C(C)C)nc(N(C)C)n1 | inconclusive: 11.2 µM [inhibitor, single point] |
| O=C(CCN1CCOCC1)c1ccc2c(c1)OCCO2 | inconclusive: 28.2 µM [inhibitor, single point] |
| CN(C)c1cccc(F)c1C(=O)NC(=O)Nc1ccc(Cl)cc1 | inconclusive: 2.82 µM [inhibitor, partial curve, poor fit] |
| Cc1ccc(S(=O)(=O)N2C[C@H]3N(C(=O)OC(C)C)N(C(=O)OC(C)C)C[C@H](OC(=O)NCc4ccccc4)[C@@]3(O)C2)cc1 | inactive |
| Cc1ccc(/C=C2\SC(=S)N(CCCC(=O)Nc3cccnc3)C2=O)cc1 | inactive |
| Cc1cccc(NC(=S)NC2CC3CCCC(C2)N3Cc2cccs2)c1 (stereo unspecified) | inconclusive: 11.2 µM [inhibitor, single point] |
| Cc1ccc2nc(C)cc(N/N=C/c3cccc(O)c3)c2c1 | inconclusive: 28.2 µM [inhibitor, single point] |
| S=C(NCC1CC1)N/N=C/c1ccccc1Cl | inconclusive: 28.2 µM [inhibitor, single point] |
| CCN(CC)CCOc1ccc2c(c1)C(=NNC(=O)c1ccccn1)c1cc(OCCN(CC)CC)ccc1-2 | inconclusive: 12.6 µM [inhibitor, single point] |
| CC(=O)Nc1cccc(/C(C)=N/Nc2nc3ccccc3s2)c1 | inconclusive: 8.91 µM [inhibitor, partial curve, poor fit] |
| Cn1cnc([N+](=O)[O-])c1S(=O)(=O)Oc1cccc2ccccc12 | inconclusive: 7.94 µM [inhibitor, partial curve, poor fit] |
| Nc1cc(C(=O)O)c(N)c2c1C(=O)c1ccccc1C2=O | inconclusive: 10 µM [inhibitor, partial curve] |
| CC1(C)c2ccccc2N2CC(=O)N(CC(N)=O)C21C (stereo unspecified) | inconclusive: 22.4 µM [inhibitor, single point] |
| COc1ccc(NS(=O)(=O)c2cc(NC(=O)/C=C/c3cccs3)ccc2N2CCOCC2)cc1 | inactive |
| CC(C)(C)c1ccc(C(=O)CC(Sc2ccc(Cl)cc2)C(=O)O)cc1 (stereo unspecified) | inconclusive: 11.2 µM [inhibitor, partial curve, poor fit] |

| Structure (SMILES) | Potency |
| --- | --- |
| Cc1cc(N(C)Cc2ccccc2)nc(-c2ccccc2)n1 | inconclusive: 0.447 µM [inhibitor, full curve, poor fit] |
| O=C(NCc1ccco1)c1c[nH]c2ccc(S(=O)(=O)N3CCOCC3)cc2c1=O | inactive |
| Cc1ccc(-c2cc(C)nc3nc(N)nn23)cc1 | inactive |
| COc1ccccc1/C=C1\SC(=S)N(C(C(=O)O)c2ccccc2)C1=O (stereo unspecified) | inconclusive: 10 µM [inhibitor, partial curve, poor fit] |
| CC(C)c1ccc(N=C2N=C(N)c3ccccc32)cc1 | inconclusive: 10 µM [inhibitor, partial curve] |
| CC(C)(C)c1ccc(C(=O)Nc2ccc(O)c3c(=O)cc(-c4ccccc4Cl)oc23)cc1 | inconclusive: 2.51 µM [inhibitor, partial curve, poor fit] |
| COc1ccc(CCNC(=S)Nc2ccc(OC)cc2)cc1 | inconclusive: 12.6 µM [inhibitor, single point] |
| COc1ccc(Cl)cc1S(=O)(=O)N1CCCC(C(=O)N2CCOCC2)C1 (stereo unspecified) | inactive |
| O=S(=O)(c1ccccc1)N1CCC(O)(CN2CCN(c3ccccc3)CC2)CC1 | inactive |
| CN1CCC(Oc2ccccc2Sc2ccccc2)CC1 | inconclusive: 28.2 µM [inhibitor, single point] |
| CC(=O)C1=C(C)NC(=S)NC1c1cccc([N+](=O)[O-])c1 (stereo unspecified) | inactive |
| CN(C)C(=O)C1CC(=O)OC12CCCCC2 (stereo unspecified) | inactive |
| CC[C@H]1OC(=O)[C@H](C)[C@@H](O[C@H]2C[C@@](C)(OC)[C@@H](O)[C@H](C)O2)[C@H](C)[C@@H](O[C@@H]2O[C@H](C)C[C@H](N(C)C)[C@H]2O)[C@](C)(O)C[C@@H](C)CN(C)[C@H](C)[C@@H](O)[C@]1(C)O | inconclusive: 10 µM [inhibitor, single point] |
| COc1ccc(NC(=S)/N=C(\N)Nc2nc(C)c3ccccc3n2)cc1 | inconclusive: 28.2 µM [inhibitor, single point] |
| C=CCC[C@@H](Cc1ccc(F)cc1)C(=O)OC[C@@H](Cc1c[nH]c2ccccc12)NC(=O)[C@@H](CC=C)CC(=O)N(CCO)Cc1ccccc1 | inconclusive: 28.2 µM [inhibitor, single point] |
| C[C@@H](NC(=O)c1[nH]cnc1C(=O)Nc1ccc(Cl)cc1)c1ccccc1 | inconclusive: 15.8 µM [inhibitor, single point] |
| COc1ccc(-n2c(=O)c3c(c4cc(OC)ccc4n3C)n(C)c2=O)cc1 | inactive |
| Cc1ccc(CNC(=O)CN2CCCN(Cc3ccc(F)cc3)S2(=O)=O)cc1 | inactive |
| Cc1cc(C)c(/C=C/c2onc(C)c2S(=O)(=O)N2CCC(C(=O)Nc3ccc(Cl)c(C(F)(F)F)c3)CC2)c(C)c1 | inactive |
| S=C(Nc1ccc(Br)cc1)NC1CCCC1 | inconclusive: 14.1 µM [inhibitor, single point] |
| Cc1ccccc1C(=O)O/N=C(\N)c1ccc([N+](=O)[O-])cc1 | inconclusive: 31.6 µM [inhibitor, single point] |
| O=C(NC(=S)Nc1ccc(F)c([N+](=O)[O-])c1)c1ccccc1F | inconclusive: 28.2 µM [inhibitor, single point] |

| Structure (SMILES) | Potency |
| --- | --- |
| NC(=O)c1ccsc1NC(=O)CSc1nc2ccccc2c(=O)n1CCCO | inconclusive: 6.31 µM [inhibitor, partial curve, poor fit] |
| O=C(N/N=C/c1cccs1)c1cc(-c2cccc3ccccc23)n[nH]1 | inconclusive: 10 µM [inhibitor, partial curve, poor fit] |
| O=C(N/N=C/C(Br)=C/c1ccccc1)c1ccncc1 | inconclusive: 28.2 µM [inhibitor, single point] |
| COc1cc2[nH]c(=O)n(Cc3ccc(C(=O)N4CCN(c5cccc(C)c5C)CC4)cc3)c(=O)c2cc1OC | inactive |
| S=c1[nH]nc(Cc2cccs2)n1-c1cccc2ccccc12 | inconclusive: 31.6 µM [inhibitor, single point] |
| O=C(CCCN1C(=O)/C(=C\c2cccc(Br)c2)SC1=S)Nc1cccnc1 | inconclusive: 2.82 µM [inhibitor, partial curve, poor fit] |
| CCCc1cc(C(=O)Nc2cc(C)ccc2O)no1 | inconclusive: 0.447 µM [inhibitor, full curve, poor fit] |
| N#CC[C@H](Cc1ccccc1)N1CCN(Cc2ccccc2)CCC1=O | inconclusive: 3.98 µM [inhibitor, full curve] |
| NC(N)=N/N=C/c1ccc(OCc2ccccc2Cl)cc1 | inconclusive: 28.2 µM [inhibitor, single point] |
| Cc1c(N)c(C(C)(C)C)cc(C(C)(C)C)c1[N+](=O)[O-] | inconclusive: 10 µM [inhibitor, partial curve, poor fit] |
| CCCCOc1ccc(C(=O)NC(=S)Nc2ccc(CN3CCOCC3)cc2)cc1 | inactive |
| Cc1ccc(-c2cc(C(=O)Nc3ccc(S(=O)(=O)Nc4cc(C)on4)cc3)c3ccccc3n2)c(C)c1 | inactive |
| CN(C)c1nc(C#N)nc(N(C)C)n1 | inactive |
| COc1ccc(-c2cc(=O)c3cc(F)ccc3[nH]2)cc1 | inconclusive: 11.2 µM [inhibitor, single point] |
| COc1ccccc1C(=O)N/C(=C/c1ccc(Br)cc1)C(=O)N1CCCC1 | inconclusive: 17.8 µM [inhibitor, single point] |
| CC(Cc1cccs1)NC(=S)Nc1ccccc1 (stereo unspecified) | inconclusive: 10 µM [inhibitor, partial curve, poor fit] |
| Cc1ccc2nc(C)c(C(=O)NN=C3CCCCCC3)n2c1 | inconclusive: 0.501 µM [inhibitor, full curve, poor fit] |
| CC1CC(=O)Nc2ccccc2N1C(=O)Nc1ccccc1 (stereo unspecified) | inconclusive: 5.01 µM [inhibitor, full curve] |
| CCOC(=O)C1(Cc2ccccc2)CCN(Cc2cn[nH]c2-c2ccccc2)CC1 | inconclusive: 22.4 µM [inhibitor, single point] |
| COc1ccc(CN(C)C(=S)Nc2ccc(Cl)cc2Cl)cc1 | inconclusive: 10 µM [inhibitor, single point] |
| CC(C)NC(=O)C1CCCN(S(=O)(=O)c2cccc3nonc23)C1 (stereo unspecified) | inactive |
| O=C(NC1CCCc2ccccc21)c1ccc(S(=O)(=O)N2CCOCC2)cc1 (stereo unspecified) | inactive |
